Test results as given in patent US11866502B2, “Anti-FGFR2 antibodies and methods of use thereof” (Regeneron Pharmaceuticals, Inc., priority 2020, dated 2024).

What was measured:
SNU-16 cells = assay: In vitro cytotoxicity assay (CellTiter-Glo 2.0), SNU-16 cells; assay type: cell-based, human; conditions: 6 days
Protocol: (§1) To test the ability of anti-FGFR2 antibody drug conjugates (ADCs) disclosed herein to kill human cell lines, an in vitro cytotoxicity assay was performed. In vitro cytotoxicity of the anti-FGFR2 ADCs, isotype control ADCs, and reference free payloads were evaluated using the CellTiter-Glo 2.0 Assay Kit (Promega, Cat #G9243), in which the quantity of ATP present is used to determine the number of viable cells in culture. The payloads Maytansinoid 1A, Maytansinoid 1A* (a cell permeable equivalent of Maytansinoid 1A), and Tubulysin 1A were tested as free payloads, and the unconjugated antibodies, including comparator antibodies, were used as controls.
(§2) Five-fold serial dilutions of anti-FGFR2 ADCs or isotype control ADCs were prepared in dilution media (Optimem+0.1% BSA) and added to cells at final concentrations ranging from 20 nM to 0.051 pM (concentrations were corrected for the DAR and are dosed based on the effective payload concentration). […] Relative light units (RLUs) were measured on an Envision luminometer (Perkin Elmer) and cell viability was expressed as a percentage of the untreated (100% viable) cells. IC50 values were determined using a four-parameter logistic equation over a 10-point dose response curve (GraphPad Prism). The maximum % kill was also determined for each test article as follows: 100−minimum percent viability.

[1] = system: human gastric cancer PDX GA0033 tumors; assay: Human gastric cancer PDX GA0033 tumor growth (Example 8); assay type: in vivo, BALB/c nude mice; conditions: for Tumor growth in mm^3 from start of treatment (mean ± SD): subcutaneous; for Average % Decrease in Tumor Growth: vs corresponding isotype control
Protocol: Briefly, HuPrime® primary human gastric cancer PDX GA0033 tumor fragments 2-3 mm in diameter (Crown Bioscience) were implanted subcutaneously into the right flank of female BALB/c nude mice (5-9 weeks old, GemPharmatech). After tumors reached an average volume of 100-200 mm^3, mice were randomized into groups for treatment (n=6 mice per group). […] All ADCs were administered once per week via subcutaneous injection for two treatments, and all naked antibodies were administered twice per week via subcutaneous injection throughout the experiment. Tumor volumes were measured twice per week over the course of the experiment. Averages (mean+/−standard deviation) of the tumor growth (change in tumor volume from the start of treatment through the end of the experiment) were calculated for each treatment group. The percent decrease of tumor growth was calculated from comparison to the corresponding isotype control group, and the percent regression of tumors at the end of the experiment was calculated from comparison to the tumor volume at the start of treatment.

NCI-H716 cells = assay: In vitro cytotoxicity assay (CellTiter-Glo 2.0), NCI-H716 cells; assay type: cell-based, human; conditions: 6 days; for IC50: NCI-H716 (low FGFR2b, high FGFR2c); for Max % Kill: NCI-H716, up to 20 nM
Protocol: as §1
(§3) Five-fold serial dilutions of anti-FGFR2 ADCs or isotype control ADCs were prepared in dilution media (Optimem+0.1% BSA) and added to cells at final concentrations ranging from 20 nM to 0.051 pM (concentrations were corrected for the DAR and are dosed based on the effective payload concentration). Five-fold serial dilutions of free payloads were prepared in 100% DMSO, transferred to fresh dilution media, and then added to the cells at a final constant DMSO concentration of 0.2% and final payload concentrations ranging from 20 nM to 0.051 pM. The last well in each dilution series served as an untreated control and included media alone or media plus 0.2% DMSO and was plotted as a continuation of the 5-fold serial dilution. Six days later, 100 uL of CellTiter Glo 2.0 was added to each well, plates were mixed for 2 minutes on an orbital shaker, and plates were incubated at room temperature for 10 minutes. Relative light units (RLUs) were measured on an Envision luminometer (Perkin Elmer) and cell viability was expressed as a percentage of the untreated (100% viable) cells. IC50 values were determined using a four-parameter logistic equation over a 10-point dose response curve (GraphPad Prism). The maximum % kill was also determined for each test article as follows: 100−minimum percent viability.

IM-9 cells = assay: In vitro cytotoxicity assay (CellTiter-Glo 2.0), IM-9 cells; assay type: cell-based, human; conditions: 6 days; for IC50: IM-9 (non-FGFR2 expressing); for Max % Kill: IM-9, up to 20 nM
Protocol: as §1, §3

hFGFR2c.mmh = target: T1, hFGFR2c.mmh (Homo sapiens, UniProt P21802); assay: Biacore surface plasmon resonance binding kinetics to hFGFR2c.mmh; conditions: 25° C.
T1 construct: myc-myc-hexahistidine (MMH) (C); made in house
T1 sequence (P21802 with tags, fused parts or gaps): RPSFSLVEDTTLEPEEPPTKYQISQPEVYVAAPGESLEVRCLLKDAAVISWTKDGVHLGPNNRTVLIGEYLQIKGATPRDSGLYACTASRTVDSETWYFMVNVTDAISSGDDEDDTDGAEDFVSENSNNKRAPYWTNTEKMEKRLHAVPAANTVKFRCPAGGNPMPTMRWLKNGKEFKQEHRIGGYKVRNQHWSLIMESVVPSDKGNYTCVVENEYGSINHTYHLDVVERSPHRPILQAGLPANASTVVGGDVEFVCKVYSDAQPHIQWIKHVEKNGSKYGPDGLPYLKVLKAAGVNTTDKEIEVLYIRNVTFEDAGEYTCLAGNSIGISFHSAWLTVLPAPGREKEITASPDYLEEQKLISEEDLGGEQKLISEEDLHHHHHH
Protocol: The equilibrium dissociation constants (KD values) for hFGFR2b.mmh binding to anti-FGFR2 antibodies conjugated with Tubulysin (“tubulysin 1ALP”), Auristatin (“auristatin LP1”), or mc-VC-PAB-NMe-C3-May (“maytansinoid 1ALP”) were determined using a real-time surface plasmon resonance biosensor assay on a Biacore 2000 or a Biacore 4000 instrument. The Biacore sensor surface was derivatized by amine coupling with a monoclonal mouse anti-human Fc antibody (REGN2567 or Jackson Cat. No #109-005-098) to capture anti-FGFR2 ADC and parent unmodified antibodies expressed with human constant regions. Biacore binding studies were performed in HBS-EP running buffer (0.01M HEPES pH 7.4, 0.15M NaCl, 3 mM EDTA, 0.05% v/v Surfactant P20). […] Association of hFGFR2b-MMH or hFGFR2c-MMH to each of the captured ADCs and monoclonal antibodies was monitored for 4 minutes. Subsequently, dissociation was monitored for 10 minutes in HBS-EP running buffer. […] Kinetic association (ka) and dissociation (kd) rate constants were determined by fitting the real-time sensorgrams to a 1:1 binding model using Scrubber 2.0c curve fitting software. […] Binding dissociation equilibrium constants (KD) and dissociative half-lives (t½) were calculated from the kinetic rate constants as: […]

MFM-223 cells = assay: In vitro cytotoxicity assay (CellTiter-Glo 2.0), MFM-223 cells; assay type: cell-based, human; conditions: 6 days
Protocol: as §1, §2

hFGFR2b.mmh = target: T2, hFGFR2b.mmh (Homo sapiens, UniProt P21802); assay: Biacore surface plasmon resonance binding kinetics to hFGFR2b.mmh; conditions: 25° C.
T2 construct: myc-myc-hexahistidine (MMH) (C); made in house
T2 sequence (P21802 with tags, fused parts or gaps isoform P21802-3): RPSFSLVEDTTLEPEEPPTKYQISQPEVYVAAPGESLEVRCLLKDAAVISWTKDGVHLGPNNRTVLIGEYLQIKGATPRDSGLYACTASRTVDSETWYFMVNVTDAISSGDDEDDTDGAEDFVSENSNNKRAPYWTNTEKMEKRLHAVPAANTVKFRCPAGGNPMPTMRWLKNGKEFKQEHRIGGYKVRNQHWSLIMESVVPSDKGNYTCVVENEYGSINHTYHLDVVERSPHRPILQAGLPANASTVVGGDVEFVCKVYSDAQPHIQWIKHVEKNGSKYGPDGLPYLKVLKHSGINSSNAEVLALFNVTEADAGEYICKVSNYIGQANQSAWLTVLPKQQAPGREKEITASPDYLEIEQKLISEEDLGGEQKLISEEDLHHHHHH
Protocol: The Biacore sensor surface was derivatized by amine coupling with a monoclonal mouse anti-human Fc antibody (REGN2567 or Jackson Cat. […] Human FGFR2b and Human FGFR2c were prepared in-house expressing a C-terminal myc-myc-hexahistidine tag ([…] NO: 57; […] NO: 58). […] Association of hFGFR2b-MMH or hFGFR2c-MMH to each of the captured ADCs and monoclonal antibodies was monitored for 4 minutes. Subsequently, dissociation was monitored for 10 minutes in HBS-EP running buffer. Anti-human Fc surface was regenerated by a brief injection of 20 mM H3PO4. All binding kinetic experiments were performed at 25° C. […] All sensorgrams were double referenced by subtracting buffer injection sensorgram signal from the corresponding analyte sensorgram, thereby removing artifacts caused by dissociation of the antibody from the capture surface. […] [formula]

GA1224 PDX tumors = assay: Gastric cancer patient derived xenograft GA1224 growth (Example 14); assay type: in vivo, BALB/c Nude mice; conditions: 20 mg/kg once per week for two weeks, intravenous
Protocol: To assess the anti-tumor activity of FGFR2b Camptothecin-LP2 ADCs (Table 13) against patient derived gastric cancer xenografts (GA1224), tumor fragments (2-3 mm in diameter) were implanted subcutaneously into the flank of female BALB/c Nude mice (6-9 weeks old, GemPharmatech Co., Ltd). After tumors reached an average volume of 100-150 mm^3, mice were randomized into groups for treatment (n=6 mice per group).
(§4) Tumor volumes were measured twice per week over the course of the experiment. Averages (mean+/−standard deviation) of the tumor growth (change in tumor volume from the start of treatment through the end of the experiment) were calculated for each treatment group. The percent decrease of tumor growth was calculated from comparison to the isotype control antibody group, and the percent regression of tumors at the end of the experiment was calculated from comparison to the tumor volume at the start of treatment.

[2] = system: SNU5 (FGFR2b negative cells) xenografts; assay: In vivo bystander study, SNU-5 xenografts (Example 15); design: species or system BALB/c SCID mice; conditions: 10 mg/kg single dose
Protocol: (§5) The ability of the anti-FGFR2 ADCs to induce tumor regression in FGFR2 negative cells through release of the payload in FGFR2 positive cells, i.e., bystander activity, was also assessed. The ability of FGFR2b Camptothecin ADC and FGFR2b Maytansinoid ADC to inhibit tumor growth was tested on FGFR2-amplified SNU-16 human gastric cancer xenografts (FIG. 11), on FGFR2-negative SNU-5 human gastric cancer xenografts (FIG. 12), or on co-inoculated SNU-16 and SNU-5 xenografts implanted at a ratio of 2:1 (FIG. 13).
(§6) Briefly, 5×10^6 SNU-16 and/or SNU-5 cancer cells (ATCC) mixed with Matrigel (BD Biosciences) were implanted subcutaneously into the flank of male BALB/c SCID mice (6-8 weeks old, Jackson Laboratory). After tumors reached an average volume of 200-250 mm^3, mice were randomized into groups for treatment (n=6 mice per group).
as §4, with “control” for “control antibody”

[3] = system: SNU16 and SNU5 Co-Inoculated (2:1 ratio) xenografts; assay: In vivo bystander study, SNU-16 and SNU-5 co-inoculated xenografts (Example 15); design: species or system BALB/c SCID mice; conditions: 10 mg/kg single dose
Protocol: as §5, §6
as §4, with “control” for “control antibody”

[4] = system: SNU16 (FGFR2b positive cells) xenografts; assay: In vivo bystander study, SNU-16 xenografts (Example 15); design: species or system BALB/c SCID mice; conditions: 10 mg/kg single dose
Protocol: as §5, §6
as §4, with “control” for “control antibody”

[5] = naked antibody 15 mg/kg twice per week
[6] = 3 mg/kg once per week, two treatments

B1: mAb1: anti-FGFR2 antibody; HCVR/LCVR SEQ ID NO: 2/10, HC/LC 18/20; N297Q heavy chain SEQ ID NO: 52 (antibody)
heavy: QVQLVESGGGVVQPGRSLRLSCAASGFTFSSYGMHWVRQAPGKGLEWVAVIWYDGSNKYYADSVKGRFTISRDNSKNTLYLQMNSLRAEDTAVYYCAREESSASGVDYWGQGTLVTVSSASTKGPSVFPLAPCSRSTSESTAALGCLVKDYFPEPVTVSWNSGALTSGVHTFPAVLQSSGLYSLSSVVTVPSSSLGTKTYTCNVDHKPSNTKVDKRV[human IgG4 Fc with S228P (EU numbers) omitted]
light: EIVLTQSPGTLSLSPGERATLSCRASQSVSTRYLAWYQQKRGQAPRLLIYGASSRATGIPDRFSGSGSGTDFTLTISRLEPEDFAVYYCQEYGSSSITFGQGTRLEIKRTVAAPSVFIFPPSDEQLKSGTASVVCLLNNFYPREAKVQWKVDNALQSGNSQESVTEQDSKDSTYSLSSTLTLSKADYEKHKVYACEVTHQGLSSPVTKSFNRGEC
With B1 the IC50 (SNU-16 cells; SNU-16 (FGFR2b positive)) was > 20 nM, the “Max % Kill” value (SNU-16 cells; SNU-16, up to 20 nM) was 5.4% and the “Tumor growth in mm^3 from start of treatment (mean ± SD)” value [1, 5] was 1135.3 ± 391.3 mm^3. For the same molecule, the “Average % Decrease in Tumor Growth” value [1, 5] was 10.9%, the IC50 (NCI-H716 cells) was > 20 nM and the “Max % Kill” value (NCI-H716 cells) was 7.8%. For the same molecule, the IC50 (IM-9 cells) was > 20 nM, the “Max % Kill” value (IM-9 cells) was 4.4% and the Kd (hFGFR2c.mmh) was > 30 nM. The “Antigen Bound (RU)” value (hFGFR2c.mmh; antibody captured on anti-human Fc surface) was 1.5 RU, the IC50 (MFM-223 cells; MFM-223 (FGFR2b positive)) was > 20 nM and the “Max % Kill” value (MFM-223 cells; MFM-223, up to 20 nM) was 4.5%. For the same molecule, the “ka” value (hFGFR2b.mmh) was 41700 M⁻¹ s⁻¹, the “kd” value (hFGFR2b.mmh) was 0.00104 s⁻¹ and the “Antigen Bound (RU)” value (hFGFR2b.mmh; antibody or ADC captured on anti-human Fc surface) was 70.9 RU. The “Average % Tumor Regression” value (GA1224 PDX tumors) was −1300.5%, the “Tumor growth in mm3 from start of treatment (mean ± SD)” value (GA1224 PDX tumors) was 1627.8 ± 551.9 mm3 and the “Average % Decrease in Tumor Growth” value (GA1224 PDX tumors; vs isotype control antibody) was −47.5%.

B2: mAb1-maytansinoid 1ALP: anti-FGFR2 mAb1 conjugated to maytansinoid 1ALP (mc-VC-PAB-NMe-C3-May) (conjugate)
heavy: B1 heavy
light: B1 light
modifications: N-methyl
For B2, the “Average % Tumor Regression” value [2] was −311.8%, the “Tumor growth in mm^3 from start of treatment (mean ± SD)” value ([2]; subcutaneous) was 401.6 ± 74.4 mm^3 and the “Average % Decrease in Tumor Growth” value ([2]; vs isotype control group) was 3.4%. For the same molecule, the “Tumor growth in mm^3 from start of treatment (mean ± SD)” value [1, 6] was 273.6 ± 241.9 mm^3, the “Average % Decrease in Tumor Growth” value [1, 6] was 75.1% and the “Tumor growth in mm^3 from start of treatment (mean ± SD)” value ([1]; 10 mg/kg once per week, two treatments) was −104.2 ± 20.6 mm^3. The “Average % Tumor Regression” value ([1]; 10 mg/kg once per week, two treatments, vs tumor volume at start) was 75.0%, the “Tumor growth in mm^3 from start of treatment (mean ± SD)” value ([3]; SNU16 and SNU5 co-inoculated 2:1, subcutaneous) was 181.1 ± 57.0 mm^3 and the “Average % Tumor Regression” value ([3]; co-inoculated 2:1) was −118.3%. For the same molecule, the “Average % Decrease in Tumor Growth” value ([3]; co-inoculated 2:1, vs isotype control group) was 68.2%, the IC50 (NCI-H716 cells) was > 20 nM and the “Max % Kill” value (NCI-H716 cells) was 0.5%. For the same molecule, the “Average % Tumor Regression” value [4] was 100%, the “Tumor growth in mm^3 from start of treatment (mean ± SD)” value ([4]; subcutaneous) was −160.7 ± 28.4 mm^3 and the “Average % Decrease in Tumor Growth” value ([4]; vs isotype control group) was 120.4%. The IC50 (IM-9 cells) was > 20 nM, the “Max % Kill” value (IM-9 cells) was 0.0% and the “ka” value (hFGFR2b.mmh) was 24800 M⁻¹ s⁻¹. For the same molecule, the “kd” value (hFGFR2b.mmh) was 0.00104 s⁻¹.
